From ChEMBL document CHEMBL4888484, “Replenishing the malaria drug discovery pipeline: Screening and hit evaluation of the MMV Hit Generation Library 1 (HGL1) against asexual blood stage Plasmodium falciparum ,using a nano luciferase reporter read-out” (2022)
About 540 (0.36%) of roughly 150,000 compounds showed an effect of 50% or more. This is one part of the list.

The compounds below were run on Plasmodium falciparum (assay: Primary screen in NF54 nanoGlo assay, in single point, at 2uM, 72h; a lower Z score goes with more inhibition). Details: timepoint 72 hour.
Assay type: functional, Erythrocyte

**Q.** `Cc1cc(NC(=O)C2(CN(C)C)CCCCC2)ccc1N(C)C` was tested. Which “% Inhibition” value did it give?
**A.** -1%

**Q.** What about the Z score of the same compound?
**A.** 0.2

**Q.** Which “% Inhibition” value does the source give for `CCC(CC)(CNC1CCC2(CCOCC2)CC1)C(=O)O` here?
**A.** -5%

**Q.** And the Z score?
**A.** 0.63

**Q.** For `O=C1COCCN1CC(=O)N(Cc1cccnc1)c1ccc(F)cc1`, which “% Inhibition” value is on record?
**A.** -1%

**Q.** What about the Z score of the same compound?
**A.** 0.09

**Q.** Which results are given for `Cc1cc(O)cc(=O)n1CCn1cnc2ccccc2c1=O`?
**A.** % Inhibition: -6%; Z score: 0.78

**Q.** For `Cc1csc(NC(=O)[C@H](C)N(C)Cc2noc(C(C)C)n2)n1`, which “% Inhibition” value is on record?
**A.** -6%

**Q.** And the Z score?
**A.** 0.97

**Q.** Which “% Inhibition” value does the source give for `CCc1nc(-c2ccc(C(=O)NCCc3cn[nH]c3)cc2)ccc1C` here?
**A.** -16%

**Q.** What about the Z score of the same compound?
**A.** 2.26

**Q.** How did the “% Inhibition” value turn out when `CCn1nc(C2CCOCC2)nc1-c1ccc(CO)cc1` was run?
**A.** 15%

**Q.** What about the Z score of the same compound?
**A.** -1.92

**Q.** How did the “% Inhibition” value turn out when `c1cc2cc(OCCOC[C@H]3CCCO3)ccc2[nH]1` was run?
**A.** 3%

**Q.** What about the Z score of the same compound?
**A.** -0.3

**Q.** What does the source list for `CCn1cc(C(=O)Oc2ccc(OC)c(F)c2)c(-c2cnn(C)c2)n1`?
**A.** % Inhibition: -18%; Z score: 2.57

**Q.** How did the “% Inhibition” value turn out when `Cc1ccc2c(C)cc(N[C@H]3CCN(C)C3)nc2c1C` was run?
**A.** -1%

**Q.** And the Z score?
**A.** 0.11

**Q.** For `COc1ccccc1N1CCN(C(=O)[C@@H]2COCCO2)CC1`, which “% Inhibition” value is on record?
**A.** 5%

**Q.** And the Z score?
**A.** -1.02

**Q.** What does the source list for `CNc1nc(C)cc(C(=O)N(C)c2cnn(C)c2)n1`?
**A.** % Inhibition: 11%; Z score: -1.53

**Q.** Which results are given for `Cc1cc(C)c(CNC(=O)c2ccccc2NC(=O)c2ccco2)c(=O)[nH]1`?
**A.** % Inhibition: -22%; Z score: 2.97

**Q.** What does the source list for `O=c1c2cccnc2ccn1Cc1cc(F)cc(C(F)(F)F)c1`?
**A.** % Inhibition: -10%; Z score: 1.22

**Q.** What does the source list for `CCCN1C(=O)C2CCC(=O)N2c2ccc(C(=O)NC(C)c3ccccc3)cc21` (stereo not drawn)?
**A.** % Inhibition: -12%; Z score: 1.9

**Q.** With `Cc1cccnc1N1CC[C@H](N2CCN(C)CC2)[C@H](CCCO)C1` as the compound, how does the “% Inhibition” value read?
**A.** -7%

**Q.** And the Z score?
**A.** 1.29

**Q.** For `CN(Cc1cn[nH]c1)C(=O)c1cc[nH]c1C1CCC1`, which “% Inhibition” value is on record?
**A.** -14%

**Q.** And the Z score?
**A.** 2.75

**Q.** Which results are given for `CCN(CC)c1ccc(CNC(=O)[C@H](C)c2c(C)noc2C)cc1F`?
**A.** % Inhibition: -12%; Z score: 1.74

**Q.** What does the source list for `COC[C@H](C)NC(=O)Nc1ccc(Cl)c(OC(F)F)c1`?
**A.** % Inhibition: 1%; Z score: -0.1

**Q.** How did the “% Inhibition” value turn out when `Cc1noc(C)c1CC(=O)N1CC(Nc2ncccn2)C1` was run?
**A.** 9%

**Q.** And the Z score?
**A.** -1.06

**Q.** Which “% Inhibition” value does the source give for `CC1CCCCC1OCCN1CCCC(c2ccnn2CCO)C1` (stereo not drawn) here?
**A.** -8%

**Q.** And the Z score?
**A.** 0.89

**Q.** With `COc1ccccc1CCNC(=O)[C@@H]1CCN(c2ccc3ccccc3c2)C1=O` as the compound, how does the “% Inhibition” value read?
**A.** 7%

**Q.** What about the Z score of the same compound?
**A.** -0.89

**Q.** For `Cc1cc(C(=O)NC(C)(C)CN2CCOCC2)ns1`, which “% Inhibition” value is on record?
**A.** -17%

**Q.** And the Z score?
**A.** 1.84

**Q.** With `CC[C@H](C)NS(=O)(=O)c1cc(NC(=O)C2CCC2)ccc1Oc1c(C)c(C(=O)O)nn1C` as the compound, how does the “% Inhibition” value read?
**A.** 8%

**Q.** What about the Z score of the same compound?
**A.** -1

**Q.** What does the source list for `Nc1nonc1-n1nncc1-c1cccc2ccccc12`?
**A.** % Inhibition: 0%; Z score: 0.05

**Q.** What does the source list for `Cn1c(=O)n(Cc2ccc(Cl)cc2)c(=O)c2c1nc(CN1CCOCC1)n2CC(N)=O`?
**A.** % Inhibition: -11%; Z score: 1.36

**Q.** With `Cc1noc(C)c1S(=O)(=O)NCc1cnoc1C` as the compound, how does the “% Inhibition” value read?
**A.** -6%

**Q.** What about the Z score of the same compound?
**A.** 1.11

**Q.** Which “% Inhibition” value does the source give for `Cc1nnc(O)nc1Nc1cccc(Cl)c1` here?
**A.** 1%

**Q.** What about the Z score of the same compound?
**A.** -0.06

**Q.** `CN=C(NCCc1ccc2c(c1)OCO2)N(C)Cc1cnn(C)c1` was tested. Which “% Inhibition” value did it give?
**A.** -2%

**Q.** What about the Z score of the same compound?
**A.** 0.37

**Q.** `O=C(CCN1CCCC1=O)NCc1cccnc1N1CCCCCCC1` was tested. Which “% Inhibition” value did it give?
**A.** -9%

**Q.** And the Z score?
**A.** 1.01

**Q.** `CCC(CC)S(=O)(=O)NC(=O)c1ncoc1C(C)C` was tested. Which “% Inhibition” value did it give?
**A.** -13%

**Q.** What about the Z score of the same compound?
**A.** 2.49

**Q.** For `O=C(c1cccs1)N1CC[C@H](Oc2cccnn2)C1`, which “% Inhibition” value is on record?
**A.** -6%

**Q.** And the Z score?
**A.** 0.66

**Q.** Which results are given for `Cc1ccn2c(C(=O)N3CCc4sccc4C3)nnc2n1`?
**A.** % Inhibition: -17%; Z score: 1.48

**Q.** What does the source list for `O=C(N[C@@H]1CCCC(F)(F)[C@H]1O)c1noc2c1CCc1ccccc1-2`?
**A.** % Inhibition: 3%; Z score: -0.49

**Q.** Which “% Inhibition” value does the source give for `O=C(Cc1ncc[nH]1)N(Cc1ccccc1C(F)(F)F)CC1CC1` here?
**A.** 2%

**Q.** And the Z score?
**A.** -0.41

**Q.** How did the “% Inhibition” value turn out when `O=C(NC1CCN(Cc2cccc3c2OCO3)CC1)c1ccsc1` was run?
**A.** -10%

**Q.** What about the Z score of the same compound?
**A.** 1.22

**Q.** With `Cn1cncc1CNC(=O)[C@H]1CCCN(c2ncccc2C(F)(F)F)C1` as the compound, how does the “% Inhibition” value read?
**A.** -6%

**Q.** What about the Z score of the same compound?
**A.** 0.51

**Q.** What does the source list for `CN1CCC(N(CCc2ccccc2)C(=O)c2ncoc2C2CC2)CC1`?
**A.** % Inhibition: -2%; Z score: 0.28

**Q.** For `O=C(Cc1cccc2ccccc12)Nc1ccc(Cl)c(N2CCCS2(=O)=O)c1`, which “% Inhibition” value is on record?
**A.** 17%

**Q.** What about the Z score of the same compound?
**A.** -2.11

**Q.** What does the source list for `CC(C)(C)C[C@@H](CC(=O)O)NS(=O)(=O)c1ccc(C#N)cc1`?
**A.** % Inhibition: 1%; Z score: -0.19

**Q.** How did the “% Inhibition” value turn out when `CCc1sc(C(=O)Nc2c(NC)c(=O)[nH]c(=O)n2CC)cc1C` was run?
**A.** 7%

**Q.** And the Z score?
**A.** -0.85

**Q.** With `CCn1cc2ccc(C(=O)NC3CC3)cc2n1` as the compound, how does the “% Inhibition” value read?
**A.** -11%

**Q.** And the Z score?
**A.** 1.58

**Q.** What does the source list for `CCCC[C@@H](C(=O)Nc1ccc2c(c1)CCCCO2)N(CC)CC`?
**A.** % Inhibition: -1%; Z score: 0.17

**Q.** How did the “% Inhibition” value turn out when `Cc1nc(C)n(CCNC(=O)c2ccc3nc(C4CCCCC4)oc3c2)n1` was run?
**A.** -8%

**Q.** And the Z score?
**A.** 0.82
